These results are taken from article PMC6919601, “Identification of Plasmodium dipeptidyl aminopeptidase allosteric inhibitors by high throughput screening” (PLoS ONE, 2019).

Hit rate of the full screen: of about 110,000 compounds, about 230 (0.21%) showed an effect of 50% or more. The list shows a part of the results.
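Further: 30 min substrate incubation versus DMSO and 10 µM JCP410 controls.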

The target in this experiment is DPAP1 (Plasmodium falciparum, UniProt Q8IIJ9). The experiment is described as follows: primary screen, percent inhibition; read by cleavage of a fluorogenic dipeptide substrate; higher = more effect of the substance. Set-up: species or system P. falciparum D10 trophozoite lysates; single well.
Chain of DPAP1 (Q8IIJ9 whole entry, looked up): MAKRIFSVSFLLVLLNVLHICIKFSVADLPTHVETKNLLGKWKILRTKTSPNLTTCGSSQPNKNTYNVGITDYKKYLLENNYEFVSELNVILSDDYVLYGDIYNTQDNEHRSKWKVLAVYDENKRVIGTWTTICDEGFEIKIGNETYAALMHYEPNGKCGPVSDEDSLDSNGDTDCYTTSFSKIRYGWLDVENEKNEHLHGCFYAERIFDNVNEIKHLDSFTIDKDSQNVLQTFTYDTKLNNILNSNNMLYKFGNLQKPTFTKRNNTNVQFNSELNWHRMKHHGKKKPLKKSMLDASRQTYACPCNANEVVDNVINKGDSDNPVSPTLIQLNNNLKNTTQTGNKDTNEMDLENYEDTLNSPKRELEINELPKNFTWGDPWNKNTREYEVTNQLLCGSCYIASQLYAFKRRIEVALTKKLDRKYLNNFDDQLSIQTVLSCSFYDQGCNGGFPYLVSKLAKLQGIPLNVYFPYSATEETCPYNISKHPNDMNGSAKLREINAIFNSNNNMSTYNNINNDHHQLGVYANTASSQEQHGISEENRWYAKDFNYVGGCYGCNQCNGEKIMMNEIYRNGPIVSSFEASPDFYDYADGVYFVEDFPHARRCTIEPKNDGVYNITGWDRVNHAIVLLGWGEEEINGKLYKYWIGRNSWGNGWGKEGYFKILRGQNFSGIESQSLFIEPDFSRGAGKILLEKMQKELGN
On to `Oc1cc(Nc2ccc(Br)cc2)nc(O)n1`, for which the “% Inhibition @ 10 uM” value was -2.48%.

With `Cc1ccc2nc(N3CN(CCN4CCOCC4)CN(c4nc5ccc(C)cc5s4)C3)sc2c1`, the “% Inhibition @ 10 uM” value was 26.6%.

On to `CC(C)CCNC(=O)c1cnn(-c2ccc(F)cc2)c1C1CCN(C(=O)OC(C)(C)C)CC1`, for which the “% Inhibition @ 10 uM” value worked out at 3.61%.

Turning to `Cc1cc(N2CCN(c3ccccc3)CC2)nc2ccccc12`, the “% Inhibition @ 10 uM” value was determined as 0.345%.

Turning to `Cc1csc(NC(=O)CCc2c(C)nc3c4c(C)cc(C)nc4nn3c2C)n1`, the “% Inhibition @ 10 uM” value is on record as 4.14%.

Regarding `COc1ccc(CN2CCN(c3ccccc3C)CC2)c(C)c1C`, the “% Inhibition @ 10 uM” value is on record as -0.197%.

Turning to `CCCNCc1nc(-c2ccc(OC)c(OC)c2)no1`, the “% Inhibition @ 10 uM” value is given as -0.0593%.

Regarding `CC(C)Cn1cc(NC(=O)NCC2CCCO2)c2ccccc2c1=O` (stereo not shown), the “% Inhibition @ 10 uM” value was -4.21%.

For `Oc1nc2ccc(Br)cc2c(F)c1-c1cccs1`, the “% Inhibition @ 10 uM” value is on record as -2.05%.

On to `CCOc1ccc(C(=O)NCc2ccco2)cc1`, for which the “% Inhibition @ 10 uM” value is reported as -1.12%.

`CC1CCCCN1S(=O)(=O)c1cc(Cl)ccc1Cl` (stereo not shown): the “% Inhibition @ 10 uM” value was 5.06%.

With `N=C1/C(=C/c2cc(Cl)c(O)c(Cl)c2)C(=O)N=C2SC=C(c3ccccc3)N12`, the “% Inhibition @ 10 uM” value came to 2.95%.

As for `CC1(C(=O)O)CCC(C(=O)Nc2cccc(C(=O)O)c2)C1(C)C` (stereo not shown), the “% Inhibition @ 10 uM” value is 0.35%.

With `CCCN1C(=O)SC(CC(=O)Nc2ccccc2)C1=O` (stereo not shown), the “% Inhibition @ 10 uM” value is -1.79%.

In the case of `Nc1nonc1-c1nc2ccccc2n1CC(=O)Nc1ccc2c(c1)CCC2`, the “% Inhibition @ 10 uM” value is listed as 0.751%.

Consider `CC(C)Oc1cccc(-c2cc(C(=O)N3CCN(C(=O)c4ccco4)CC3)c3ccccc3n2)c1`, for which the “% Inhibition @ 10 uM” value was 21.1%.

In the case of `O=C(CNS(=O)(=O)c1cccc(Cl)c1)Nc1ccc(-c2nc3ccccc3s2)cc1`, the “% Inhibition @ 10 uM” value is 4.11%.

Regarding `CNC(=O)c1ccc2c(c1SCCO)C(=O)c1ccccc1C2=O`, the “% Inhibition @ 10 uM” value amounted to 3.81%.

Turning to `O=S(=O)(c1cccc(-c2cn3ccccc3n2)c1)N1CCOCC1`, the “% Inhibition @ 10 uM” value is listed as 0.245%.

Take `O[C@]12CCCC[C@@H]1[C@@H](c1ccccc1C(F)(F)F)NCC2`: the “% Inhibition @ 10 uM” value stood at 3.31%.

As for `O=C(Nc1cccc2ccccc12)c1ccc(Cl)s1`, the “% Inhibition @ 10 uM” value is given as -2.53%.

For `COC(=O)c1sccc1NC(=O)C1c2ccccc2C(=O)N(CC(C)C)C1c1cccs1` (stereo not shown), the “% Inhibition @ 10 uM” value is listed as 2.78%.

As to `COc1nc(-c2ccc(Cl)cc2)ccc1-c1noc(-c2ccncc2)n1`, the “% Inhibition @ 10 uM” value was determined as 1.89%.

As for `Cc1ccc(C2=NC3(CCN(C(=O)c4ccc(F)cc4)CC3)NC2=O)cc1C`, the “% Inhibition @ 10 uM” value was 2.75%.

`CN(C)c1ccc(NC2=C([N+](=O)[O-])CS(=O)(=O)C2)cc1`: the “% Inhibition @ 10 uM” value turned out to be 4.12%.

Turning to `CC(=O)c1ccc(NC(=O)C(C)Oc2ccc(C)cc2)cc1` (stereo not shown), the “% Inhibition @ 10 uM” value is on record as -2.76%.

With `COc1ccc2cc(C(=O)N3CCCCCC3)sc(=O)c2c1OC`, the “% Inhibition @ 10 uM” value was -3.64%.

`CCCNC(=O)C1CC(=O)N(c2ccc(Br)cc2)C1` (stereo not shown): the “% Inhibition @ 10 uM” value is reported as -0.0648%.

Regarding `O=C(Nc1n[nH]cc1-c1cccc(C(F)(F)F)c1)c1ccc(Cl)cc1`, the “% Inhibition @ 10 uM” value is on record as 0.66%.

For the compound `COc1cc(C2CC(=O)NC3=C2C(=O)CC(c2cccs2)C3)cc(Br)c1O` (stereo not shown), the “% Inhibition @ 10 uM” value is 0.205%.

`COc1cc(CN2CCN(c3ccc(F)cc3)CC2)cc(OC)c1`: the “% Inhibition @ 10 uM” value is 3.48%.

On to `COCCn1c(CN2CC(C)OC(C)C2)nc2c1c(=O)n(C)c(=O)n2C` (stereo not shown), for which the “% Inhibition @ 10 uM” value is -1.43%.

With `CC1CCN(S(=O)(=O)N2CCCC(C(=O)N3CCOCC3)C2)CC1` (stereo not shown), the “% Inhibition @ 10 uM” value was -5.18%.

On to `Cc1ccc2oc(-c3ccccc3)c/c(=N\CC3CCCO3)c2c1` (stereo not shown), for which the “% Inhibition @ 10 uM” value is given as 2.24%.

With `CCN(CC)CCCCCOc1ccccc1C`, the “% Inhibition @ 10 uM” value is recorded as -4.21%.

As to `CCOC(=O)N1CCC(NC(=O)CCCn2nc(C)n3c(cc4sccc43)c2=O)CC1`, the “% Inhibition @ 10 uM” value is reported as -1.58%.

Consider `Cc1ccc(Cl)cc1-n1ncc2c(NCCN(C)C)ncnc21`, for which the “% Inhibition @ 10 uM” value is reported as 3.99%.

`O=C(Nc1ccc2c(c1)C(=O)N(c1ccccc1)C2=O)C1CCCO1` (stereo not shown): the “% Inhibition @ 10 uM” value is reported as -1.45%.

Turning to `CCC(C)Sc1nc2c(c(=O)[nH]c(=O)n2C)n1C/C=C(/C)Cl` (stereo not shown), the “% Inhibition @ 10 uM” value was -0.13%.

In the case of `CC(C)C[C@H](NC(=O)c1ccc(N2CCN(c3ccncc3)CC2)cc1)C(=O)NCC#N`, the “% Inhibition @ 10 uM” value is 0.744%.

In the case of `CCc1c2c(nc3sc(C(=O)Nc4cccc(OC)c4)c(N)c13)CC(C)(C)CC2=O`, the “% Inhibition @ 10 uM” value came out at 10.1%.

Consider `CCOc1cc2c(cc1/C=C1/NC(=O)NC1=O)OCO2`, for which the “% Inhibition @ 10 uM” value is listed as -2.17%.

Turning to `COc1ccc2ccc(OC)c(/C=C3\S/C(=N/c4ccc(C(=O)O)cc4)N(C)C3=O)c2c1`, the “% Inhibition @ 10 uM” value was -0.736%.

Take `CC(C)(C)C(=O)O/N=C(\N)c1ccccn1`: the “% Inhibition @ 10 uM” value worked out at 4.06%.

In the case of `Cc1cc(OCC(=O)NCC2CCCO2)cc(C)c1Cl` (stereo not shown), the “% Inhibition @ 10 uM” value is listed as -7%.

Regarding `CCc1ccc2c(Cl)c(C(=O)N3CCN(C(=O)c4ccco4)CC3)sc2c1`, the “% Inhibition @ 10 uM” value is given as -6.7%.

For the compound `COc1ccc(NS(=O)(=O)c2ccc(NC(=O)C3CC3)cc2)cc1`, the “% Inhibition @ 10 uM” value is -4.02%.

With `CC(C)(Nc1ccccc1)c1nnnn1C(/C=C\c1ccc(Cl)cc1Cl)C(C)(C)C` (stereo not shown), the “% Inhibition @ 10 uM” value is -5.38%.

Consider `C1=CC2(CCN(Cc3ccc4c(c3)OCO4)CC2)c2ccccc21`, for which the “% Inhibition @ 10 uM” value worked out at 4.9%.

Turning to `Cc1cccc(NC(=O)c2cc3c(O)nc4ccccc4c3s2)n1`, the “% Inhibition @ 10 uM” value came to 2.69%.

Consider `N#CC1=C(N)OC2=C(C(=O)CC(c3ccco3)C2)C1c1cccc(F)c1` (stereo not shown), for which the “% Inhibition @ 10 uM” value was -1.06%.

As to `N#CCNC(=O)[C@H](Cc1c(F)cccc1F)NC(=O)c1ccc(-c2ccc(C(=O)O)cc2Cl)cc1`, the “% Inhibition @ 10 uM” value is on record as -3.14%.

In the case of `O=C(O)C1C2C=CC(C2)C1C(=O)N1CCN(c2cccc(Cl)c2)CC1` (stereo not shown), the “% Inhibition @ 10 uM” value is reported as -1.44%.

In the case of `COC(=O)C1=CN(CCOC23CC4CC(CC(C4)C2)C3)C=C(C(=O)OC)C1c1ccc(OC)cc1`, the “% Inhibition @ 10 uM” value worked out at 5.38%.

With `Cc1cccc(N2C(=O)c3ccc(C45CC6CC(CC(C6)C4)C5)cc3C2=O)n1`, the “% Inhibition @ 10 uM” value was -1.72%.

On to `Cc1noc(C)c1S(=O)(=O)N1CCC(C(=O)NCCc2ccc(Cl)cc2)CC1`, for which the “% Inhibition @ 10 uM” value is given as -8.81%.

`CN1C(=O)CC(C(=O)Nc2ccccc2F)S/C1=N/c1ccc2c(c1)OCO2` (stereo not shown): the “% Inhibition @ 10 uM” value is reported as -3.63%.

Turning to `CC(=O)N1c2ccccc2N=C2CC(c3ccc(F)cc3)CC(O)=C2C1c1cccnc1` (stereo not shown), the “% Inhibition @ 10 uM” value is -1.06%.

For `CCc1ccc(N2C(=O)CC(N3CCN(c4ccccc4F)CC3)C2=O)cc1` (stereo not shown), the “% Inhibition @ 10 uM” value is 1.52%.

As for `COc1ccc(C2C(C#N)=C(N)N(c3cccnc3)C3=C2C(=O)CC(C)(C)C3)cc1OC` (stereo not shown), the “% Inhibition @ 10 uM” value is 4.28%.

Turning to `Cc1ccc(NC(=O)CSc2nc(O)cc(C(F)(F)F)n2)cc1C`, the “% Inhibition @ 10 uM” value came out at 2.51%.
